The source of these data is patent US20120191435A1 (SHANGHAI NATIONAL ENGINEERING RESEARCH CENTER OF ANTIBODY …, published 2012).

In experiment [1] the target is T1, CD86-Fc protein (R&D) (UniProt P42081 24-245, limits assumed).
T1 construct: Bought reagent; also called B7 molecule; not shown: Fc part of the bought fusion protein, not described
T1 sequence (looked up): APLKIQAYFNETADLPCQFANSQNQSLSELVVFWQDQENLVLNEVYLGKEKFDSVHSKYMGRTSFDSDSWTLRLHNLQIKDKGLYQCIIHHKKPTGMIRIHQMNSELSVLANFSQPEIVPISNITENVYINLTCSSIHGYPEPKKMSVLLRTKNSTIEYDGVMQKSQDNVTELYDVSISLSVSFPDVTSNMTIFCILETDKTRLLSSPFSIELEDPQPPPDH
The experiment can be described thus: Biacore SPR, CD86-Fc coupled on CM5 chip; ratio against commercially available abatacept.

In experiment [2] the target is T1, CD86-Fc protein (R&D). In words: Biacore SPR, CD86-Fc coupled on CM5 chip; ratio against un-mutated CTLA-4/Ig (WT).

B1: CTLA-4/Ig mutant CTmut8 (D106Leu to Glu) (Fc fusion)
chain: not shown
notes: extracellular domain
As to B1, the “Kd^abat/Kd^mutant” value in experiment [1] came out at 2.13. Besides, in experiment [2], the “Kd^WT/Kd^mutant” value came to 2.

B2: CTLA-4/Ig mutant CTmut10 (D106Leu to Ser) (Fc fusion)
chain: not shown
notes: extracellular domain
Regarding B2, in experiment [1], the “Kd^abat/Kd^mutant” value was found to be 2.86. Further, the “Kd^WT/Kd^mutant” value in experiment [2] turned out to be 2.68.

B3: CTLA-4/Ig mutant CTmut9 (D106Leu to Asn) (Fc fusion)
chain: not shown
notes: extracellular domain
With B3, in experiment [1], the “Kd^abat/Kd^mutant” value amounted to 0.94. In addition, in experiment [2], the “Kd^WT/Kd^mutant” value amounted to 0.88.

B4: CTLA-4/Ig mutant CTmut1 (D31Ala to Tyr) (Fc fusion)
chain: not shown
notes: extracellular domain; no entry can be tied to a mutant, so it is built from the un-mutated fusion and the change
On to B4, for which, in experiment [1], the “Kd^abat/Kd^mutant” value amounted to 4.24. The “Kd^WT/Kd^mutant” value in experiment [2] was determined as 3.98.

B5: CTLA-4/Ig mutant CTmut5 (D63Leu to Lys) (Fc fusion)
chain: not shown
notes: extracellular domain
For B5, the “Kd^abat/Kd^mutant” value in experiment [1] is 1.97. Further, the “Kd^WT/Kd^mutant” value in experiment [2] is 1.85.

B6: CTLA-4/Ig mutant CTmut6 (D63Leu to Tyr) (Fc fusion)
chain: not shown
notes: extracellular domain
Turning to B6, the “Kd^abat/Kd^mutant” value in experiment [1] is 2.44. Further, the “Kd^WT/Kd^mutant” value in experiment [2] came to 2.29.

B7: CTLA-4/Ig mutant CTmut7 (D35Arg to Pro) (Fc fusion)
chain: not shown
notes: extracellular domain
Take B7: the “Kd^abat/Kd^mutant” value in experiment [1] was found to be 0.58.

B8: CTLA-4/Ig mutant CTmut2 (D31Ala to Lys) (Fc fusion)
chain: not shown
notes: extracellular domain
For B8, the “Kd^abat/Kd^mutant” value in experiment [1] amounted to 4.31. For the same molecule, the “Kd^WT/Kd^mutant” value in experiment [2] stood at 4.04.

B9: CTLA-4/Ig mutant CTmut3 (D53Thr to Lys) (Fc fusion)
chain: not shown
notes: extracellular domain
For the molecule B9, the “Kd^abat/Kd^mutant” value in experiment [1] turned out to be 0.58. Further, the “Kd^WT/Kd^mutant” value in experiment [2] is 0.55.

B10: CTLA-4/Ig mutant CTmut4 (D55Met to Glu) (Fc fusion)
chain: not shown
notes: extracellular domain
For the molecule B10, in experiment [1], the “Kd^abat/Kd^mutant” value was determined as 1.87. Moreover, in experiment [2], the “Kd^WT/Kd^mutant” value amounted to 1.75.
